{
  "source": "the supplement of paper PMC10338343",
  "note": "± gives the standard deviation. The entries are a selection whose mix differs from that of the whole data set.",
  "data": [
    {"tested_on": "MIWI (PIWIL1) piRISC loaded with L1MC piRNA (30 nt)", "assay": "pre-steady-state target cleavage rate (min^-1); MIWI and MILI are mouse PIWI proteins and EfPiwi is from a freshwater sponge; tags in brackets are library labels; higher = faster piRNA-guided slicing of the target", "conditions": "guide: L1MC piRNA 5'p-UAACUAAAUACUAUGCAAGCUGUAGGUCCU; auxiliary factor: 500 nM mouse GTSF1", "outline": "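Cleave-'n-Seq: 1 nM active affinity-purified piRISC with one synthetic guide and 0.1 nM transcribed, DNA-blocked target RNA library were mixed, with or without 500 nM GTSF1 partner protein, in HEPES–potassium acetate buffer at 33 °C for 0–8 or 0–960 min. Uncleaved targets were sequenced and normalised to depth and to weakly complementary targets, three trials were pooled, and k3 was capped at 0.0001 min^-1. The pre-steady-state cleavage rate was fitted […].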", "values": [
      {"sequence": "UCCUGGAUGUCCUUGCUUACUAUUUAGUUA", "pre-steady-state target cleavage rate": "0.00457 ± 0.0044"},
      {"sequence": "UCCUGCUACAGCAUGCAUAGUAUUUAGAAA", "pre-steady-state target cleavage rate": "0.324 ± 0.053"},
      {"sequence": "UCCUGGUACAGCUUGCAUAGUUUUUACAAA", "pre-steady-state target cleavage rate": "0.0727 ± 0.021"},
      {"sequence": "UCGACCUACAGCUACCAUAGUAUUUAGUAA", "pre-steady-state target cleavage rate": "0.355 ± 0.037"},
      {"sequence": "UCCUGCUACAGCUUGCAUAGUAUAUACAAA", "pre-steady-state target cleavage rate": "0.248 ± 0.039"},
      {"sequence": "UCCACCUACAGCUUGCAUACAAUUUAGUAA", "pre-steady-state target cleavage rate": "0.021 ± 0.01"},
      {"sequence": "AGCUGCUACAGCUUGCAUAGUAUUUACAAA", "pre-steady-state target cleavage rate": "0.268 ± 0.048"},
      {"sequence": "UGGACCUACUCCUUGCAUAGUAUUUUCAAA", "pre-steady-state target cleavage rate": "0.0856 ± 0.017"},
      {"sequence": "UCCUGGAUCAGCUUCCAUAGUAUUUAGUAA", "pre-steady-state target cleavage rate": "0.0346 ± 0.0086"},
      {"sequence": "UCCUCCUACAGCUUCCAUACUAUUUAGUUA", "pre-steady-state target cleavage rate": "0.0394 ± 0.015"},
      {"sequence": "UCGACCUUGUGCUUGCAUAGUAUUUUCAAA", "pre-steady-state target cleavage rate": "0.0817 ± 0.015"},
      {"sequence": "UCCUGGAUGUGCUUGCAUACAAUUUAGUUA", "pre-steady-state target cleavage rate": "0.0043 ± 0.0036"},
      {"sequence": "AGCACCUACAGCUUGCAUAGUAUUUUCAAA", "pre-steady-state target cleavage rate": "0.586 ± 0.084"},
      {"sequence": "UCCUGGAUGUCCUUGCAUAGUAUUAUAGUUA", "pre-steady-state target cleavage rate": "0.0236 ± 0.0064"},
      {"sequence": "UCCUGCUACAGCUUGCAUACAAUUUAGUUA", "pre-steady-state target cleavage rate": "0.0161 ± 0.0063"},
      {"sequence": "UCCUCCUACAGCUUGCAUAGUAUUUUCUAA", "pre-steady-state target cleavage rate": "0.316 ± 0.036"},
      {"sequence": "UCCUGGAUGUCCAUGCAUAGUAUUUACUUA", "pre-steady-state target cleavage rate": "0.0104 ± 0.0048"},
      {"sequence": "UCCUGGAUGAGCUUGAUAGUAUUUAGUUA", "pre-steady-state target cleavage rate": "0.02 ± 0.0052"},
      {"sequence": "UCCUGGAUGUCGAUGCAUAGUAUUUCGUUA", "pre-steady-state target cleavage rate": "0.00613 ± 0.004"},
      {"sequence": "UCGACCUACAGCUUGCAUAGUUAAAUCAAA [g10:g28:cont:t1A]", "pre-steady-state target cleavage rate": "0.157 ± 0.044"},
      {"sequence": "UCGACCUACAGCUUGCAUAGAUAUUUAGUUA", "pre-steady-state target cleavage rate": "0.0768 ± 0.028"},
      {"sequence": "UCCACCUACAGCUUCGAUAGUAUUUAGUAA", "pre-steady-state target cleavage rate": "0.236 ± 0.031"},
      {"sequence": "UCCUGCUACAGCUUGCAUUCAAUUUAGUUA", "pre-steady-state target cleavage rate": "0.00972 ± 0.0043"},
      {"sequence": "UCCUGGAUGUGGUUGGAUAGUAUUUAGUUA", "pre-steady-state target cleavage rate": "0.023 ± 0.0089"},
      {"sequence": "UCCUGGAUGACCUUGCAUAGUAUUUAGAUA", "pre-steady-state target cleavage rate": "0.0694 ± 0.018"},
      {"sequence": "UCCUGGAUGUGCAUGCAUAGUUUUUAGUUA", "pre-steady-state target cleavage rate": "0.00476 ± 0.0042"},
      {"sequence": "UCCACCUACAGCUUGCAUAGUAUUAUCUAA", "pre-steady-state target cleavage rate": "0.262 ± 0.047"},
      {"sequence": "AGGACCUACAGCUUGCAUAGAUAUUAGUAA", "pre-steady-state target cleavage rate": "0.123 ± 0.042"},
      {"sequence": "UCCUGGAUCAGCUUGCAUAGCUAUUUAGUUA", "pre-steady-state target cleavage rate": "0.00447 ± 0.0039"},
      {"sequence": "UCGACCUACAGCUUGGAUAGUAUUUUCAAA", "pre-steady-state target cleavage rate": "0.0746 ± 0.021"},
      {"sequence": "UCCACCUACAGCUUGCAUAGUAUAAUCAAA", "pre-steady-state target cleavage rate": "0.327 ± 0.056"},
      {"sequence": "UCCUGGAUGUCGAAGCAUAGUAUUUAGUUU [g2:g16:cont:t1U]", "pre-steady-state target cleavage rate": "0.00549 ± 0.0035"},
      {"sequence": "UCGACCUACACGAUGCAUAGUAUUUAGAAA", "pre-steady-state target cleavage rate": "0.192 ± 0.023"},
      {"sequence": "AGGACCUACAGCUUCCAUAGUAUUAAGUUA", "pre-steady-state target cleavage rate": "0.156 ± 0.052"},
      {"sequence": "UCCUGGAUGUGCUUGCCAUAGUAUUUAGUUA", "pre-steady-state target cleavage rate": "0.00557 ± 0.0046"},
      {"sequence": "UCCUGGAUGUCCUUGGAUAGUAUUUAGUAA", "pre-steady-state target cleavage rate": "0.0605 ± 0.013"},
      {"sequence": "AGCACCUACAGCUUGCAUAGUAUUUACAAA", "pre-steady-state target cleavage rate": "0.569 ± 0.087"},
      {"sequence": "UGCUGCUACAGCUUGCAUAGUAUUUUCAAA", "pre-steady-state target cleavage rate": "0.353 ± 0.062"},
      {"sequence": "UCCUCCUACAGCAUGCAUAGUAUUUUCAAA", "pre-steady-state target cleavage rate": "0.325 ± 0.049"}
    ]}
  ]
}
